{"source": "the supplement of paper PMC8728848", "binders": {"B1": {"name": "DBA (Dolichos biflorus) (protein)", "chain": "ANIQSFSFKNFNSPSFILQGDATVSSGKLQLTKVKENGFPLRFPSGRAFYSSPIQIYDKFTGAVASWATSFTVKISAPSKASFADGIAFALVPVGSEPRRNGGYLGVFDSDVYNNSAQTVAVEFDTLSNSGWDPSMKHIGIDVNSIKSIATVSWDLANGENAEILITYNAATSLLVVSLVHPSRRTSYILSERVDITNELPEYVGVGFSATTGLSEGYIETHDVLSWSFASRLPDDSTAEPLDLARYLVRNVL"}}, "experiment_in_all_cases": "glycan array binding signal (z-score within array); higher = stronger binding", "details_in_all_cases": "glycan notation: IUPAC condensed, linker removed", "key": {"[1]": {"biological_target": "Gal(b1-4)GlcNAc(b1-3)Gal(b1-3)GlcNAc", "in_short": "(§1)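 Arrays were curated from the Consortium for Functional Glycomics database, 3228 in total, and kept only where the protein sequence was available. Binding is expressed as a within-array Z-score. This score was averaged across arrays of the same protein sequence at different concentrations or buffers and across linkers, and negative values can be read as non-binding.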"}, "[2]": {"biological_target": "Gal(b1-4)GlcNAc(b1-3)Gal(b1-4)Glc", "in_short": "as §1"}, "[3]": {"biological_target": "Gal(b1-4)GlcNAc(b1-3)Gal(b1-4)GlcNAc", "in_short": "as §1"}, "[4]": {"biological_target": "Gal(b1-4)GlcNAc(b1-3)Gal(b1-4)GlcNAc(b1-2)Man(a1-3)[Gal(b1-4)GlcNAc(b1-3)Gal(b1-4)GlcNAc(b1-2)Man(a1-6)]Man(b1-4)GlcNAc(b1-4)GlcNAc", "in_short": "as §1"}, "[5]": {"biological_target": "Gal(b1-4)GlcNAc(b1-3)Gal(b1-4)GlcNAc(b1-2)Man(a1-3)[Gal(b1-4)GlcNAc(b1-3)Gal(b1-4)GlcNAc(b1-2)Man(a1-6)]Man(b1-4)GlcNAc(b1-4)[Fuc(a1-6)]GlcNAc", "in_short": "as §1"}, "[6]": {"biological_target": "Gal(b1-4)GlcNAc(b1-3)Gal(b1-4)GlcNAc(b1-2)[Gal(b1-4)GlcNAc(b1-3)Gal(b1-4)GlcNAc(b1-6)]Man(a1-6)[Gal(b1-4)GlcNAc(b1-3)Gal(b1-4)GlcNAc(b1-2)Man(a1-3)]Man(b1-4)GlcNAc(b1-4)GlcNAc", "in_short": "as §1"}, "[7]": {"biological_target": "Gal(b1-4)GlcNAc(b1-3)Gal(b1-4)GlcNAc(b1-2)[Gal(b1-4)GlcNAc(b1-3)Gal(b1-4)GlcNAc(b1-6)]Man(a1-6)[Gal(b1-4)GlcNAc(b1-3)Gal(b1-4)GlcNAc(b1-2)Man(a1-3)]Man(b1-4)GlcNAc(b1-4)[Fuc(a1-6)]GlcNAc", "in_short": "as §1"}, "[8]": {"biological_target": "Gal(b1-4)GlcNAc(b1-3)Gal(b1-4)GlcNAc(b1-3)Gal(b1-4)GlcNAc", "in_short": "as §1"}, "[9]": {"biological_target": "Gal(b1-4)GlcNAc(b1-3)Gal(b1-4)GlcNAc(b1-3)Gal(b1-4)GlcNAc(b1-2)Man(a1-3)[Gal(b1-4)GlcNAc(b1-3)Gal(b1-4)GlcNAc(b1-3)Gal(b1-4)GlcNAc(b1-2)Man(a1-6)]Man(b1-4)GlcNAc(b1-4)GlcNAc", "in_short": "as §1"}, "[10]": {"biological_target": "Gal(b1-4)GlcNAc(b1-3)Gal(b1-4)GlcNAc(b1-3)Gal(b1-4)GlcNAc(b1-2)Man(a1-3)[Gal(b1-4)GlcNAc(b1-3)Gal(b1-4)GlcNAc(b1-3)Gal(b1-4)GlcNAc(b1-2)Man(a1-6)]Man(b1-4)GlcNAc(b1-4)[Fuc(a1-6)]GlcNAc", "in_short": "as §1"}, "[11]": {"biological_target": "Gal(b1-4)GlcNAc(b1-3)Gal(b1-4)GlcNAc(b1-3)Gal(b1-4)GlcNAc(b1-2)[Gal(b1-4)GlcNAc(b1-3)Gal(b1-4)GlcNAc(b1-3)Gal(b1-4)GlcNAc(b1-6)]Man(a1-6)[Gal(b1-4)GlcNAc(b1-3)Gal(b1-4)GlcNAc(b1-3)Gal(b1-4)GlcNAc(b1-2)Man(a1-3)]Man(b1-4)GlcNAc(b1-4)[Fuc(a1-6)]GlcNAc", "in_short": "as §1"}, "[12]": {"biological_target": "Gal(b1-4)GlcNAc(b1-3)Gal(b1-4)GlcNAc(b1-3)Gal(b1-4)GlcNAc(b1-3)Gal(b1-4)GlcNAc(b1-2)Man(a1-3)[Gal(b1-4)GlcNAc(b1-3)Gal(b1-4)GlcNAc(b1-3)Gal(b1-4)GlcNAc(b1-3)Gal(b1-4)GlcNAc(b1-2)Man(a1-6)]Man(b1-4)GlcNAc(b1-4)GlcNAc", "in_short": "as §1"}, "[13]": {"biological_target": "Gal(b1-4)GlcNAc(b1-3)Gal(b1-4)GlcNAc(b1-3)Gal(b1-4)GlcNAc(b1-3)Gal(b1-4)GlcNAc(b1-2)Man(a1-3)[Gal(b1-4)GlcNAc(b1-3)Gal(b1-4)GlcNAc(b1-3)Gal(b1-4)GlcNAc(b1-3)Gal(b1-4)GlcNAc(b1-2)Man(a1-6)]Man(b1-4)GlcNAc(b1-4)[Fuc(a1-6)]GlcNAc", "in_short": "as §1"}, "[14]": {"biological_target": "Gal(b1-4)GlcNAc(b1-3)Gal(b1-4)GlcNAc(b1-3)Gal(b1-4)GlcNAc(b1-3)Gal(b1-4)GlcNAc(b1-2)[Gal(b1-4)GlcNAc(b1-3)Gal(b1-4)GlcNAc(b1-3)Gal(b1-4)GlcNAc(b1-3)Gal(b1-4)GlcNAc(b1-6)]Man(a1-6)[Gal(b1-4)GlcNAc(b1-3)Gal(b1-4)GlcNAc(b1-3)Gal(b1-4)GlcNAc(b1-3)Gal(b1-4)GlcNAc(b1-2)Man(a1-3)]Man(b1-4)GlcNAc(b1-4)[Fuc(a1-6)]GlcNAc", "in_short": "as §1"}, "[15]": {"biological_target": "Gal(b1-4)GlcNAc(b1-3)Gal(b1-4)GlcNAc(b1-3)Gal(b1-4)GlcNAc(b1-3)Gal(b1-4)GlcNAc(b1-3)Gal(b1-4)GlcNAc(b1-2)Man(a1-3)[Gal(b1-4)GlcNAc(b1-3)Gal(b1-4)GlcNAc(b1-3)Gal(b1-4)GlcNAc(b1-3)Gal(b1-4)GlcNAc(b1-3)Gal(b1-4)GlcNAc(b1-2)Man(a1-6)]Man(b1-4)GlcNAc(b1-4)GlcNAc", "in_short": "as §1"}, "[16]": {"biological_target": "Gal(b1-4)GlcNAc(b1-3)Gal(b1-4)GlcNAc(b1-3)Gal(b1-4)GlcNAc(b1-3)Gal(b1-4)GlcNAc(b1-3)Gal(b1-4)GlcNAc(b1-2)Man(a1-3)[Gal(b1-4)GlcNAc(b1-3)Gal(b1-4)GlcNAc(b1-3)Gal(b1-4)GlcNAc(b1-3)Gal(b1-4)GlcNAc(b1-3)Gal(b1-4)GlcNAc(b1-2)Man(a1-6)]Man(b1-4)GlcNAc(b1-4)[Fuc(a1-6)]GlcNAc", "in_short": "as §1"}, "[17]": {"biological_target": "Gal(b1-4)GlcNAc(b1-3)Gal(b1-4)GlcNAc(b1-3)Gal(b1-4)GlcNAc(b1-3)Gal(b1-4)GlcNAc(b1-3)Gal(b1-4)GlcNAc(b1-2)[Gal(b1-4)GlcNAc(b1-3)Gal(b1-4)GlcNAc(b1-3)Gal(b1-4)GlcNAc(b1-3)Gal(b1-4)GlcNAc(b1-3)Gal(b1-4)GlcNAc(b1-6)]Man(a1-6)[Gal(b1-4)GlcNAc(b1-3)Gal(b1-4)GlcNAc(b1-3)Gal(b1-4)GlcNAc(b1-3)Gal(b1-4)GlcNAc(b1-3)Gal(b1-4)GlcNAc(b1-2)Man(a1-3)]Man(b1-4)GlcNAc(b1-4)[Fuc(a1-6)]GlcNAc", "in_short": "as §1"}, "[18]": {"biological_target": "Gal(b1-4)GlcNAc(b1-3)Gal(b1-4)GlcNAc(b1-3)Gal(b1-4)GlcNAc(b1-3)Gal(b1-4)GlcNAc(b1-3)Gal(b1-4)GlcNAc(b1-3)Gal(b1-4)GlcNAc(b1-2)Man(a1-3)[Gal(b1-4)GlcNAc(b1-3)Gal(b1-4)GlcNAc(b1-3)Gal(b1-4)GlcNAc(b1-3)Gal(b1-4)GlcNAc(b1-3)Gal(b1-4)GlcNAc(b1-3)Gal(b1-4)GlcNAc(b1-2)Man(a1-6)]Man(b1-4)GlcNAc(b1-4)GlcNAc", "in_short": "as §1"}, "[19]": {"biological_target": "Gal(b1-4)GlcNAc(b1-3)Gal(b1-4)GlcNAc(b1-3)GalNAc", "in_short": "as §1"}, "[20]": {"biological_target": "Gal(b1-4)GlcNAc(b1-3)Gal(b1-4)GlcNAc(b1-3)[Gal(b1-4)GlcNAc(b1-3)Gal(b1-4)GlcNAc(b1-6)]GalNAc", "in_short": "as §1"}, "[21]": {"biological_target": "Gal(b1-4)GlcNAc(b1-3)Gal(b1-4)GlcNAc(b1-6)[Gal(b1-3)]GalNAc", "in_short": "as §1"}, "[22]": {"biological_target": "Gal(b1-4)GlcNAc(b1-3)Gal(b1-4)[Fuc(a1-3)]GlcNAc(b1-3)Gal(b1-4)[Fuc(a1-3)]GlcNAc", "in_short": "as §1"}}, "note": "The list shows a part of the results.", "data": [{"binder": "B1", "values": [{"measurement": "glycan array binding signal (z-score)", "setting": "[1]", "result": -0.125}, {"measurement": "glycan array binding signal (z-score)", "setting": "[2]", "result": -0.131}, {"measurement": "glycan array binding signal (z-score)", "setting": "[3]", "result": -0.124}, {"measurement": "glycan array binding signal (z-score)", "setting": "[4]", "result": 0.018}, {"measurement": "glycan array binding signal (z-score)", "setting": "[5]", "result": 0.172}, {"measurement": "glycan array binding signal (z-score)", "setting": "[6]", "result": -0.006}, {"measurement": "glycan array binding signal (z-score)", "setting": "[7]", "result": 0.145}, {"measurement": "glycan array binding signal (z-score)", "setting": "[8]", "result": -0.161}, {"measurement": "glycan array binding signal (z-score)", "setting": "[9]", "result": 0.274}, {"measurement": "glycan array binding signal (z-score)", "setting": "[10]", "result": 0.124}, {"measurement": "glycan array binding signal (z-score)", "setting": "[11]", "result": 0.203}, {"measurement": "glycan array binding signal (z-score)", "setting": "[12]", "result": -0.015}, {"measurement": "glycan array binding signal (z-score)", "setting": "[13]", "result": 0.067}, {"measurement": "glycan array binding signal (z-score)", "setting": "[14]", "result": 0.01}, {"measurement": "glycan array binding signal (z-score)", "setting": "[15]", "result": -0.031}, {"measurement": "glycan array binding signal (z-score)", "setting": "[16]", "result": 0.028}, {"measurement": "glycan array binding signal (z-score)", "setting": "[17]", "result": 0.013}, {"measurement": "glycan array binding signal (z-score)", "setting": "[18]", "result": -0.183}, {"measurement": "glycan array binding signal (z-score)", "setting": "[19]", "result": 0.114}, {"measurement": "glycan array binding signal (z-score)", "setting": "[20]", "result": 0.076}, {"measurement": "glycan array binding signal (z-score)", "setting": "[21]", "result": 0.134}, {"measurement": "glycan array binding signal (z-score)", "setting": "[22]", "result": -0.114}]}]}
